Positions count from the first letter of the chain named. Numbers in names are those of the source. These are yes or no findings as the source states them, for the method shown. Binding seen in cells or lysates may run through a third protein. Some entries that bind do so weakly or less than the wild type. Tags and fused reporters may be left off the sequences shown.

Binding data for 4 molecules are collected here from publication PMC9818421.

The target in experiment [1] is T1, FLAG-tagged PNPLA3 (human) (UniProt Q9NST1).
T1 sequence: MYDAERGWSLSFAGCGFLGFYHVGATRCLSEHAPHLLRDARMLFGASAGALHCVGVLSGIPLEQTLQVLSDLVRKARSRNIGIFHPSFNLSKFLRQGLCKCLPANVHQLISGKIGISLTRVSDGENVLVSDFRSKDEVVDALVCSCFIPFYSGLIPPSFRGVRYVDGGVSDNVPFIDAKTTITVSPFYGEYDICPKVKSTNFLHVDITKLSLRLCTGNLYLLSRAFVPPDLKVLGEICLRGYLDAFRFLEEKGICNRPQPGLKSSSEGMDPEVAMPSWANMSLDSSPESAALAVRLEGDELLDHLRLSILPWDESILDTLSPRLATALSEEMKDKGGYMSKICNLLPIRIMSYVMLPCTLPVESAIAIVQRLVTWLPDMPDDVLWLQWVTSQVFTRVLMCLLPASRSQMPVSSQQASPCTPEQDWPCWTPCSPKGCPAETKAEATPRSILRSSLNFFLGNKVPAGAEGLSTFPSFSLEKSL
Kind of experiment: co-IP; HEK293T cells transfected with FLAG-tagged PNPLA3, constant amounts of ATGL and increasing amounts of perilipin 5; precipitation by the FLAG tag, immunoblot.

The target in experiment [2] is T1, FLAG-tagged PNPLA3 (human). As to the kind of experiment: co-IP; HEK293T cells transfected with FLAG-tagged PNPLA3 and ATGL alone and together with increasing amounts of PLIN1; precipitation by the FLAG tag, immunoblot of PNPLA3, ATGL and perilipin 1. A general note: Immunoblotting shows a protein as a band on a membrane.
Experiment [3] deals with T1, FLAG-tagged PNPLA3 (human). As to the kind of experiment: co-IP; HEK293T cells transfected with FLAG-tagged PNPLA3 or PNPLA3(I148M) alone and/or together with ATGL, without perilipin 5; precipitation by the FLAG tag, immunoblot.
Experiment [4] concerns the target T2, FLAG-tagged PNPLA3(I148M) (human) (UniProt Q9NST1).
T2 sequence: T1 sequence with I148M
Described as above.

Experiment [5] addresses T3, FLAG-tagged perilipin 3 (human) (UniProt O60664).
T3 sequence: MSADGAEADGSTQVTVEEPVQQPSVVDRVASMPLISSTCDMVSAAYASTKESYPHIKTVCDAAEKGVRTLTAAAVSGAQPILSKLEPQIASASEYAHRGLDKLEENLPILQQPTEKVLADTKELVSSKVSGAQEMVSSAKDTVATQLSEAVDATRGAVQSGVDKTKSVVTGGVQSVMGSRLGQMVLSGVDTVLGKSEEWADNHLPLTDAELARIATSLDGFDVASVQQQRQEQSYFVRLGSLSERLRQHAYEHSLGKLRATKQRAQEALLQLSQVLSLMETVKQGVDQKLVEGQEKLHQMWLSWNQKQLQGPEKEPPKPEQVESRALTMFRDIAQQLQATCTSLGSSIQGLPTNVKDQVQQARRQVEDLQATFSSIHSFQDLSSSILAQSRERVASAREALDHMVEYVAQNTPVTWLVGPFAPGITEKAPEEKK
Kind of experiment: co-IP; HEK293T cells transfected with PNPLA3, PNPLA3(I148M) or ATGL alone or together with FLAG-tagged PLIN1, 2, 3, 5 or ABHD5; precipitation by the FLAG tag, immunoblot.

Experiment [6] addresses T4, FLAG-tagged perilipin 5 (human) (UniProt Q00G26).
T4 sequence: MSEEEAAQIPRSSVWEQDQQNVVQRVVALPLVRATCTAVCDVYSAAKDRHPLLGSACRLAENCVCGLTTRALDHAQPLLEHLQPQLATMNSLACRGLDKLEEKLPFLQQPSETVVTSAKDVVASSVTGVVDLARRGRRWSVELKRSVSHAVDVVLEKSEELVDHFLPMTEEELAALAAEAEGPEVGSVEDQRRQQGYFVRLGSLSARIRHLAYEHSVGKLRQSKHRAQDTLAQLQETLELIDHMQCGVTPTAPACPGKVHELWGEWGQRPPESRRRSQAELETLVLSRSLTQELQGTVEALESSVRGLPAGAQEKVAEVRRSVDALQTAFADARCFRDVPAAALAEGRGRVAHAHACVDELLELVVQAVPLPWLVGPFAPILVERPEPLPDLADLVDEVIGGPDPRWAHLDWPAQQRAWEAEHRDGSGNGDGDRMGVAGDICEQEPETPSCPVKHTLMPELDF
The description is as above.

Experiment [7] deals with T5, FLAG-tagged ATGL and HA-tagged ATGL (two differently tagged copies) (UniProt Q96AD5).
T5 sequence: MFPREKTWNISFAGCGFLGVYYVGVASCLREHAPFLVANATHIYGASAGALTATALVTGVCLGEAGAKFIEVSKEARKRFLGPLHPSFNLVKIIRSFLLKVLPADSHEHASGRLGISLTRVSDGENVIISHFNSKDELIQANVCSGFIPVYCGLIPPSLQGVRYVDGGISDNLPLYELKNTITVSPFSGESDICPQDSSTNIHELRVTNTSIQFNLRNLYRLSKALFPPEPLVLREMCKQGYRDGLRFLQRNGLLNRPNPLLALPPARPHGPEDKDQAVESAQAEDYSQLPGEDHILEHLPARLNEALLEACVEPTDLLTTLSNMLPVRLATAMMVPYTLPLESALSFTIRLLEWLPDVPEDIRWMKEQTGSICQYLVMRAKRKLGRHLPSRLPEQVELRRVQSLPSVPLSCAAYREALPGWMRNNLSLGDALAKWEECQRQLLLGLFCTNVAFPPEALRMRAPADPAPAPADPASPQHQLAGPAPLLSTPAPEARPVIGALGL
As to the kind of experiment: co-IP; HEK293T cells transfected with FLAG-tagged ATGL alone and together with HA-tagged ATGL; precipitation by the FLAG tag, immunoblot of HA and FLAG.

In experiment [8] the target is T5, FLAG-tagged ATGL and HA-tagged ATGL (two differently tagged copies). Kind of experiment: co-IP; HEK293T cells transfected with FLAG-tagged ATGL alone and together with HA-tagged ATGL in the presence or absence of PNPLA3; precipitation by the FLAG tag, immunoblot of HA, FLAG and PNPLA3.

B1: adipose triglyceride lipase (ATGL), no tag named (enzyme, UniProt Q96AD5 1-504)
chain: T5 sequence
On to B1, for which the binding result is on record as “binds” in experiment [1]; “binds” in experiment [2]; “binds weakly” in experiment [3]; “binds weakly” in experiment [4]; “no binding” in experiment [5]; “binds” in experiment [6].

B2: FLAG-tagged ATGL and HA-tagged ATGL (two differently tagged copies) (enzyme, UniProt Q96AD5 1-504)
chain: T5 sequence
Take B2: the binding entry in experiment [7] and in experiment [8] was “binds” each time.

B3: PNPLA3(I148M), no tag named (enzyme, UniProt Q9NST1 1-481)
chain: T1 sequence with I148M
On to B3, for which the binding entry in experiment [6] is recorded as “binds”.

B4: perilipin 1 co-transfected in increasing amounts (Figure 6A), no tag named (protein, UniProt O60240 1-522)
chain: MAVNKGLTLLDGDLPEQENVLQRVLQLPVVSGTCECFQKTYTSTKEAHPLVASVCNAYEKGVQSASSLAAWSMEPVVRRLSTQFTAANELACRGLDHLEEKIPALQYPPEKIASELKDTISTRLRSARNSISVPIASTSDKVLGAALAGCELAWGVARDTAEFAANTRAGRLASGGADLALGSIEKVVEYLLPPDKEESAPAPGHQQAQKSPKAKPSLLSRVGALTNTLSRYTVQTMARALEQGHTVAMWIPGVVPLSSLAQWGASVAMQAVSRRRSEVRVPWLHSLAAAQEEDHEDQTDTEGEDTEEEEELETEENKFSEVAALPGPRGLLGGVAHTLQKTLQTTISAVTWAPAAVLGMAGRVLHLTPAPAVSSTKGRAMSLSDALKGVTDNVVDTVVHYVPLPRLSLMEPESEFRDIDNPPAEVERREAERRASGAPSAGPEPAPRLAQPRRSLRSAQSPGAPPGPGLEDEVATPAAPRPGFPAVPREKPKRRVSDSFFRPSVMEPILGRTHYSQLRKKS
B4: the binding result in experiment [2] is on record as “no binding”.
